Read counts are not given, so values of variants with three or more changes are uncertain.
B1: LINE1-full (parent)
chain: UACGUAGGUGGUUUUCCCCUGAUAGUGCUAAGGGGGCCUGGAAGUUUGGACUGGGCAGAGCUCAACACAGCGUGGCAAAGUGGCUGUGGCUAGACUGCCUCUCUGGAUUCCUCGUCACUCAGCAGGGCAUCUCUGAGAGAAAUGCC

Variants of: B1
Assay: self-cleavage, relative activity (ratio to wild type); higher = more cleavage; in vitro, sequencing; the parent is a self-cleaving ribozyme

| Variant | self-cleavage |
| --- | --- |
| UACGUAGGUGGUUUUCCCCUGGUAGUGCUAAGGGGGCCUGGAAGUUUGGACUGGGCAGAGCUCUACACAGCGUGGCAAAGCGGCUGUGGCUAGACUGCCUCUCUGUAUUCCUCGUCACUCAGCAGGGCAUCUCUGAGAGAAAUGCC [A22G A64U U81C G106U] | 0.24 |
| UACGUAGGUGGUCUUCCCCUGAUAGUGCUAAGGGGGCCCGGAAGUUUGGACUGGGCAGAGCUCAACACAGCGUGGCAAAGUGGCUGUGGCUAGACUGCCUCUCUGGAUUCCUCGUCACUCAGCAGGGCAUCUCCGAGAGAAAUGCC [U13C U39C U134C] | 1.03 |
| UACGUAGGUGGUUUUCCCCCGAUAGUGCUAAGGGGGCCUGGAAGUUUGGACUGGGCAGAGCUCUACACAGCGUGGCAAAGUGGCUGUGGCUAGACUGCCUCUCUGGAUUCCUCGCCACUCAGCAGGGCAUCUCUGAGAGAAAUGCC [U20C A64U U115C] | 0.52 |
| UACGUAGGUGGUUUUCCCCAGAUAGUGCUAAGGGGGCCUGGAAGUUUGGACUGGGCAGAGCUCAACACAGCGUGGCGAAGUGGCUGUGGCUAGACUGCCUCUCUGGAUUCCUCGUCACUCAGCAGGGCAUCCCUGAGAGAAAUGCC [U20A A77G U132C] | 1.65 |
| UACGUAGGUGGUUUUCCCCUGAUAGUGCUAAGGGGGCCUGGAAGUUUGGACUGGGCAGAGCUCAACACAGCGUGGCAAGGUGGCUGUGGCUAGACUGCCUCUCUGGACUCCUCGUCACUCAGCAGGGCAUCUCUGAGAGAAAAGCC [A79G U108C U143A] | 1.17 |
| UGCGUAGGUGGUCUUCCCCUGAUAGUGCUAAGGGGGCCUGGAAGUUUGGACUGGGCAGAGCUCAACACGGCGUGGCAAAGUGGCUGUGGCUAGACUGCCUCUCUGGAUUCCUCGUCACUCAGCAGGGCAUCUCUGAGAGAAAUGCC [A2G U13C A69G] | 0.24 |
| UACGUAGGUGGUUUUCCCCUGAUAGUGCUAAGGGGGCCUGGAAGUUUGGACUGGGCAGAGCUCAACACAGCGUGGCAAAGUGGCUGUGGCUAGACCGCCUCUCUGGAUUCCUCGACACUCAGCAGGGCAUCUCUGAGAGUAAUGCC [U96C U115A A140U] | 0.13 |
| UACGUAGGUGGUUUUCCCCUGAUAGUGCUAAGGGGGCCUGGGAGUUUGGACUGGGCAGAGCUCAACACAGCGUGGCAAAGUGGCUGUGGCUUGACUGCCUCUCAGGAUUCCUCGUCACUCAGCAGGGCAUCUCUGAGAGAAAUGCC [A42G A92U U104A] | 0.51 |
| UACGUAGGUGGUUUUCCCCUGAUAGUGCUAAGGGGGCCUGGGAGUUUGGACUGGGCAGAGCUCAACACAGCGUGGCAAGGUGGCUGUGGCUAGACUGCCUCUCUGGAUUCCUCGUCACUCAGCAAGGCAUCUCUGAGAGAAAUGCC [A42G A79G G125A] | 1.57 |
| UACGUAGGUGGUUAUCCCCUGAUAGUGCUAAGGGGGCCUGGAAGUUUGGACUGGGCAGAGCUCAACACAGCGUGGCAAAGUGGCUGUGGCUAGACUGCCUCUCAGGAUUCCUCGUCACUCAGCAGGGCAUCUCUGAGAGAAGUGCC [U14A U104A A142G] | 0.82 |
| UACGUAGGUGGUUUUCCCCUGAUAGUGCUAAGGGGGCCUGGAAGUUUGGACUGGGCAGAGCUCAACACAGCGUGGCAAAGCGGCUGUGGCUAGACUGCCUCUCUGGAUUCCUCGUCACCCAGCAGGGCAUCUCUGAGGGAAAUGCC [U81C U119C A138G] | 0.46 |
| UACGUAGGUGGUUAUCCCCUGAUAGUGCUAAGGGGGCCUGGAAGUUUGGACUGGGCAGAGCUCAACACAGCGUGGCAAAGUGGCUGUGGCUAGACUGCCUCUCUGGAUUCCACGUCGCUCAGCAGGGCAUCUCUGAGAGAAAUGCC [U14A U112A A117G] | 1.84 |
| UACGUAGGUGGUUUUCCCCUGAUAGUGCUAAGGGGGCCUGGAAGUUUGGACUGGGCAGAGCUCAGCACAACGUGGCAAAGUGGCUGUGGCUUGACUGCCUCUCUGGAUUCCUCGUCACUCAGCAGGGCGUCUCUGAGAGAAAUGCC [A65G G70A A92U A129G] | 0.04 |
| UACGUAGGAGGUUUUCCCCUGAUAGUGCUAAGGGGGCCUGGAUGUUUGGACUGGGCAGAGCUCAACACAGCGUGGCAAAGUGGCUGUGGCUAGACUGCCUCUCUGGAUUCCUCGUCACUCAGCAGGGCAACUCUGAGAGAAAUGCC [U9A A43U U130A] | 1.17 |
| UACGUGGGUGGUUUUCCCCUGGAAGUGCUAAGGGGGCCUGGAAGUUUGGACUGGGCAGAGCUCAACACAGCGUGGCAAAGUGGCUGUGGCUAGACUGCCUCUCUGGAUUCCUCGUCACUCAGCAGGGCAUCUCUGAGUGAAAUGCC [A6G A22G U23A A138U] | 1.06 |
| UACGUAGGUGGUUUUCCCCUGAUAGUGCUAAGGGUGCCUGGAAGUUUGGACUGGGCAGGGCUCAACACAGCGUGGCAAAGUGGCUGUGGCUAGACUGCCUCUCUGGAUUCCUCGUCACACAGCAGGGCAUCUCUGAGAGAAAUGCC [G35U A59G U119A] | 0.09 |
| UACGUAGGUGGCUUUCCCCUGAUAGUGCUAAGGGGGCCUGGAAGUUUGGACUGGGCGCAGCUCAACACAGCGAGGCAAAGUGGCUGUGGCUAGACUGCCUCUCUGGAUUCCUCAUCACUCAGCAGGGCAUCUCUGAGAGAAAUGCC [U12C A57G G58C U73A G114A] | 0.03 |
| UACGUAGGUGGUUUUCCCCUGAUAGUGUUAAGGGGGCCUGGAAGUUUGGACCGGGCAGAGCUCAACACAGCGUGGCAAAGUGGCUGUGGCUAGACUGCCUCUCUGGAUUCCUCGUCACUUAGCAGGGCAUCUCUGAGAGAAAUGCC [C28U U52C C120U] | 1.04 |
| UACGUAGGUGGUUUUCCCCUGAUAGUGCUAAGGGGGCCUGGAAGUUUGGACUGGGCAGAGCUCUACACUGCGUGGCAAAGUGGCUGUGGCUAGACAGCCCCUCUGGAUUCCACGUCACUCAGCAGGGCAUCUCUGUGAGAAAUGCC [A64U A69U U96A U100C U112A A136U] | 0 |
| UACGCAGGUGGUUUUCCCCUGGUAGUGCUAAGGGGGCCUGGAAGUUUGGACUGGGCAGAGCCCAGCACAGCGUGGCAAAGUGGCUGUGGCUAGACUGCCUCUCAGGAUUCCUCGUCACUCAGCAGGGCAUCUCUGAGAGAAAUGCC [U5C A22G U62C A65G U104A] | 0.37 |
